Variants at the floor of the assay are shown more often than the library holds them.
B1: TPR 5TU (parent)
chain: GGAUCUUCUCGAUCUAACAAAAAAGACAAAUCUGCCACAAAGCUUGAGAGCAUCUUCGGAUGCAGAGGCGGCAGCCUUCGGUGGCGCGAUAGCGCCAACGUUCUCAACUAUGACACGCAAAACGCGUGCUCCGUUGAAUGGAGUUUAUCAUG

Variants of: B1
Test: polymerase ribozyme fitness, log enrichment relative to wild type (log ratio); higher = more active; in vitro selection for triplet polymerase activity
How it was run: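 Libraries of mutants in each subunit of a heterodimeric triplet polymerase ribozyme were generated by PCR and transcribed. In triplicate, each went through one in vitro selection round: annealing with biotinylated primer, partner subunit and triplets; frozen incubation at −7 °C; gel excision of extended constructs; streptavidin-bead capture; RT-PCR. Fitness, taken from Illumina sequencing of input and output libraries, is the logarithm of a genotype's enrichment over wild-type enrichment, averaged across replicates with inverse-variance weights. The logarithm is base 2, and genotypes needed ≥10 input reads and ≥1 read per output to be kept.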

C14U A23C and C14A G86C U90A A150U cannot be ordered by “polymerase ribozyme fitness (log ratio)” value: no more than -4.2 for the first, no more than -4.2 for the second.

C14U A21C C35G G88C A107C G117A G126U and C14G A24C G84A C93U A121U cannot be ordered by “polymerase ribozyme fitness (log ratio)” value: no more than -4.2 for the first, no more than -4.2 for the second.

C14U C57G C85U and C14G A28G U31A C32U G34A G42C U55G G94U cannot be ordered by “polymerase ribozyme fitness (log ratio)” value: no more than -4.2 for the first, no more than -4.2 for the second.

C14U A39C U45G C69U G70A C85A G100A and C14U A26G A47U C95U G124U cannot be ordered by “polymerase ribozyme fitness (log ratio)” value: no more than -4.2 for the first, no more than -4.2 for the second.

Going from C14U A28U C51G A97G to C14G U82C, the “polymerase ribozyme fitness (log ratio)” value rises from no more than -4.2 to -3.65.

C14U A22G U44A A107C A138G G140U and C14G C35A A64G G70A G83A C87U A150G cannot be ordered by “polymerase ribozyme fitness (log ratio)” value: no more than -4.2 for the first, no more than -4.2 for the second.

C14G A40U A73G U104C and C14G A21U G68A G84U C131G G143U cannot be ordered by “polymerase ribozyme fitness (log ratio)” value: no more than -4.2 for the first, no more than -4.2 for the second.

C14G A23U A28C A40G G42C A89U C116G G124C U134G and C14A U15C C43U A47U U55A G84U G117U C132U U135A U148G cannot be ordered by “polymerase ribozyme fitness (log ratio)” value: no more than -4.2 for the first, no more than -4.2 for the second.

C14G A20G A24U C72G U82G A97G U101C C103G G136A and C14G C54A C57G G84U U102C U139A A150C cannot be ordered by “polymerase ribozyme fitness (log ratio)” value: no more than -4.2 for the first, no more than -4.2 for the second.

Compared with C14G C18U A49C A64C C93G C95G C99G C105G U135C A142G, C14A G50A C85U G126C is higher in “polymerase ribozyme fitness (log ratio)” value: no more than -4.2 for the first, -4.17 for the second.

C14G A23G G46C G58A G62C G92A C114A A142U and C14G C32U G94A C114G G136A cannot be ordered by “polymerase ribozyme fitness (log ratio)” value: no more than -4.2 for the first, no more than -4.2 for the second.

C14G G88A and C14G C79A C93G C96A cannot be ordered by “polymerase ribozyme fitness (log ratio)” value: no more than -4.2 for the first, no more than -4.2 for the second.

C14U A30G A41U C69A C79A U82G G83C A106G A110G and C14U A20U G58C G70U A97G U151G cannot be ordered by “polymerase ribozyme fitness (log ratio)” value: no more than -4.2 for the first, no more than -4.2 for the second.

C14G C38U A49C C75U C79G U139G G141C A147U and C14U A20C A49C A52C U77G C96G A142C cannot be ordered by “polymerase ribozyme fitness (log ratio)” value: no more than -4.2 for the first, no more than -4.2 for the second.

C14U A40G C87G A91G C123U and C14U A47C G50A G70A U77C C85A C125G C132A A142U cannot be ordered by “polymerase ribozyme fitness (log ratio)” value: no more than -4.2 for the first, no more than -4.2 for the second.

Going from C14G C75U G94C A122U G124A to C14G G88U C93A C116G U144A, the “polymerase ribozyme fitness (log ratio)” value falls from -3.86 to no more than -4.2.

C14U A73U U78G C87G A122U C123U and C14G A28U C85U G141U U146C cannot be ordered by “polymerase ribozyme fitness (log ratio)” value: no more than -4.2 for the first, no more than -4.2 for the second.

Going from C14G A19U G59C G81U C95U G141A to C14G A22U A26G A28C U134A, the “polymerase ribozyme fitness (log ratio)” value falls from -3.74 to no more than -4.2.

C14U C32U C85G and C14G G50U C76U G94C A113G G117C A142C U148G cannot be ordered by “polymerase ribozyme fitness (log ratio)” value: no more than -4.2 for the first, no more than -4.2 for the second.

C14G U15C C51U G68A G83A U90G C149G and C14G A26C C43A C76U G83C A113G C114U G133U cannot be ordered by “polymerase ribozyme fitness (log ratio)” value: no more than -4.2 for the first, no more than -4.2 for the second.

C14G U15C A106C G140U and C14G G74C C76G G84A C93G A107G cannot be ordered by “polymerase ribozyme fitness (log ratio)” value: no more than -4.2 for the first, no more than -4.2 for the second.

C14U A20C U33A C93G C103G C118U and C14U A17G C54G U56G A66U C95G A120G cannot be ordered by “polymerase ribozyme fitness (log ratio)” value: no more than -4.2 for the first, no more than -4.2 for the second.

C14G A24U U61A and C14U C38A A52C U55A A73C G81C C93A A97U C108G U145A cannot be ordered by “polymerase ribozyme fitness (log ratio)” value: no more than -4.2 for the first, no more than -4.2 for the second.

C14A G59U G83A C132G U144A and C14U A28G C32G cannot be ordered by “polymerase ribozyme fitness (log ratio)” value: no more than -4.2 for the first, no more than -4.2 for the second.

Compared with C14A C75U, C14G C32U U33A G71A G92U G136A G141C is lower in “polymerase ribozyme fitness (log ratio)” value: -1.84 for the first, no more than -4.2 for the second.

C14U A17U A28G U44A A73G C95A G100U A106G A115G and C14G C36U G92C cannot be ordered by “polymerase ribozyme fitness (log ratio)” value: no more than -4.2 for the first, no more than -4.2 for the second.

C14A G48C C57G C87G C131A U139C and C14U A17G G83A C108U cannot be ordered by “polymerase ribozyme fitness (log ratio)” value: no more than -4.2 for the first, no more than -4.2 for the second.

C14G C87U C149A and C14A C85G U135A cannot be ordered by “polymerase ribozyme fitness (log ratio)” value: no more than -4.2 for the first, no more than -4.2 for the second.

Going from C14U C27A A40G C51A C57A G94C G100A C118A G126A to C14G C57A C85U C99A C123U, the “polymerase ribozyme fitness (log ratio)” value rises from no more than -4.2 to -3.49.

C14A U31A U55A G92A C125U A142U and C14G A30U A52G G71C G83C U134G cannot be ordered by “polymerase ribozyme fitness (log ratio)” value: no more than -4.2 for the first, no more than -4.2 for the second.

Going from C14A G25A U53G G84C C87U G117C G124A to C14G U33C U56A C85A C99G G117U C123U, the “polymerase ribozyme fitness (log ratio)” value rises from no more than -4.2 to -3.91.

C14G C32G U56A C85U C95G U104G and C14G A28U C114U U146G cannot be ordered by “polymerase ribozyme fitness (log ratio)” value: no more than -4.2 for the first, no more than -4.2 for the second.

C14A G25U A64C G83C A89U A121G and C14A G59C U78G C96U cannot be ordered by “polymerase ribozyme fitness (log ratio)” value: no more than -4.2 for the first, no more than -4.2 for the second.

Compared with C14A C38U, C14U C35U A60G C95U A115U U144G is lower in “polymerase ribozyme fitness (log ratio)” value: -1.31 for the first, no more than -4.2 for the second.

C14U A20C C87G A91C A137C U148C and C14G A23G C32A G94U C123G A147G cannot be ordered by “polymerase ribozyme fitness (log ratio)” value: no more than -4.2 for the first, no more than -4.2 for the second.

Compared with C14A G92U C93U G126C G140A, C14G C36U U45G G59A C95U A97G A98U C125A U139G is higher in “polymerase ribozyme fitness (log ratio)” value: no more than -4.2 for the first, -4.03 for the second.

C14G A40U A66U C149G and C14G A22C A52U C96A A97U G117U cannot be ordered by “polymerase ribozyme fitness (log ratio)” value: no more than -4.2 for the first, no more than -4.2 for the second.

C14G A28C U55G and C14A U53A G59A C85U C87U A106C U135G cannot be ordered by “polymerase ribozyme fitness (log ratio)” value: no more than -4.2 for the first, no more than -4.2 for the second.

C14U C36A A47C U55A C76G G86C and C14U A39U G46A C85A C96U A119C cannot be ordered by “polymerase ribozyme fitness (log ratio)” value: no more than -4.2 for the first, no more than -4.2 for the second.

Compared with C14A C57G G59A G133C U144G, C14U A19C C76U C99U is higher in “polymerase ribozyme fitness (log ratio)” value: no more than -4.2 for the first, -3.03 for the second.

C14G A30C U31A A41G G68A A73G G86A U146C and C14U A49C cannot be ordered by “polymerase ribozyme fitness (log ratio)” value: no more than -4.2 for the first, no more than -4.2 for the second.

With C14G G46C A107U the “polymerase ribozyme fitness (log ratio)” value was no more than -4.2.

Reference: the RNAGym collection of RNA variant scans (doi:10.1073/pnas.2313332121)
